This is an account of results in ChEMBL document CHEMBL4888484, “Replenishing the malaria drug discovery pipeline: Screening and hit evaluation of the MMV Hit Generation Library 1 (HGL1) against asexual blood stage Plasmodium falciparum ,using a nano luciferase reporter read-out” (2022).

About 540 (0.36%) of roughly 150,000 compounds showed an effect of 50% or more. This is one part of the list.

The experiment deals with Plasmodium falciparum. In words: Primary screen in NF54 nanoGlo assay, in single point, at 2uM, 72h; a lower Z score goes with more inhibition. It is filed as functional, Erythrocyte. As to conditions: timepoint 72 hour.
`CCN(CC)S(=O)(=O)c1ccc2c(c1)nc(CN(C)C(=O)NCCc1ccccc1)n2C`: the “% Inhibition” value is on record as -10% and the Z score is 1.38.
Turning to `O=C1NCCN(C(=O)c2ccc(F)cc2F)[C@H]1Cc1ccccc1`, the “% Inhibition” value is reported as -2% and the Z score was found to be 0.32.
Taken in the same sequence, the figures for `CN1CC(=O)Nc2cc(C(=O)NCc3cccc4c3OCC4)cnc21` were -5% and 0.65.
`Cc1cc(C)nc(O[C@H]2CC[C@H](NC(=O)c3sc(C)nc3C)CC2)n1`: the “% Inhibition” value is listed as -3% and the Z score is listed as 0.3.
With `Cc1cc(CN[C@H]2CCC3(C2)CN(C(=O)OC(C)(C)C)C3)ccn1`, the “% Inhibition” value turned out to be 0% and the Z score was -0.03.
Turning to `COc1ccc(Br)cc1Cn1nnc(C(=O)NCc2ccc3c(c2)OCO3)c1N`, the “% Inhibition” value is -13% and the Z score turned out to be 2.53.
Taken in the same sequence, the figures for `CCC(CNC1CCCS(=O)(=O)C1)c1ccc(Cl)cc1` (stereo not drawn) were -1% and 0.12.
Taken in the same sequence, the figures for `COc1ccc2cc(-c3n[nH]cc3CN(C)C[C@H]3CCCN3C)ccc2c1` were -5% and 0.77.
For `CCc1ccc(NC(=O)Cn2c(=O)c(-c3noc(C)n3)c3n(c2=O)CCCC3)cc1`, the “% Inhibition” value is listed as -9% and the Z score turned out to be 1.18.
For `Cc1ccc(C(=O)C(=O)Nc2cccnc2-n2cccn2)cc1`, the “% Inhibition” value is -5% and the Z score amounted to 0.63.
With `CCOC(=O)Cc1c(C)nc2ncnn2c1N1CCC(c2ccccc2)CC1`, the “% Inhibition” value is given as -10% and the Z score came to 1.37.
With `O=C(NC(c1ccccc1)c1cccc(Cl)c1)NC(c1ccccc1)c1cccc(Cl)c1` (stereo not drawn), the “% Inhibition” value is given as -15% and the Z score was determined as 1.8.
Taken in the same sequence, the figures for `O=C1C[C@@H]2CCN(CCCc3ccccc3)C[C@@H]2CCOc2ccccc2N1` were 0% and -0.04.
For `Cc1c(Cl)cccc1NC(=O)c1nc(N2CCCC2)c2c(C)c(C)n(-c3ccccc3)c2n1` the same measures were 0% and 0.07.
As to `CC(C)c1cc(CN(C)Cc2cccc3nonc23)on1`, the “% Inhibition” value is on record as -6% and the Z score is listed as 1.07.
Taken in the same sequence, the figures for `O=C([C@H](O)C1CCCCC1)N1CCN(c2nc[nH]n2)CC1` were -3% and 0.57.
Taken in the same sequence, the figures for `Cc1cnc(CN2CC3(CCC2=O)CCN(Cc2ccc(F)cc2)CC3)cn1` were -1% and 0.1.
Taken in the same sequence, the figures for `CCOC(=O)c1cccnc1-c1cccc(C(=O)N2CCC3(CCO3)CC2)c1` were -11% and 2.13.
Consider `COC(=O)C1CCCCC1NC(=O)c1[nH]nc(C2CC2)c1Cl` (stereo not drawn), for which the “% Inhibition” value is -9% and the Z score was 1.17.
Turning to `Cc1ccc(C2=Nc3ccccc3N=C(c3ccc4ccccc4c3O)C2)cc1`, the “% Inhibition” value is 8% and the Z score is reported as -1.59.
Taken in the same sequence, the figures for `CC(C)(C)OC(=O)NC(CO)C(O)c1cccnc1` (stereo not drawn) were 2% and -0.31.
For the compound `COc1cccc([C@H]2CC(=O)Nc3nc(N)sc32)c1OCc1cccc(Cl)c1`, the “% Inhibition” value was -5% and the Z score was 1.04.
Taken in the same sequence, the figures for `Cc1ccc(S(=O)(=O)N2CCCN(C(=O)CN3CCCCC3)[C@@H]2C(C)C)cc1` were -11% and 1.7.
For `Cc1cc(Br)cnc1N(C)Cc1ncnn1C` the same measures were 0% and 0.03.
For `COc1ccccc1-c1n[nH]c2c1CN(C(=O)c1cnc3ccccn13)CC2` the same measures were -13% and 1.32.
`Cc1noc([C@H](C)OC(=O)c2c[nH]nc2C(C)(C)C)n1`: the “% Inhibition” value is given as 2% and the Z score is given as -0.39.
`C=CCn1cc(CNCCOCC)c(C)n1`: the “% Inhibition” value turned out to be 5% and the Z score was -0.68.
As for `Cc1nnc(-c2cc(C(C)C)n(-c3cccc(C(=O)NCc4ccncc4)c3)n2)o1`, the “% Inhibition” value is recorded as 7% and the Z score is recorded as -0.61.
In the case of `Cc1nc(CCNc2ncccn2)sc1Cl`, the “% Inhibition” value was 5% and the Z score is -0.75.
As for `O=c1ccc(-c2ccc(S(=O)(=O)Nc3ccc(OC(F)(F)F)cc3)o2)n[nH]1`, the “% Inhibition” value is -13% and the Z score stood at 1.27.
Regarding `CC1=C(C(=O)NCc2cccc(COCC(F)(F)F)c2)CCCO1`, the “% Inhibition” value is on record as -2% and the Z score is on record as 0.21.
For `COC(CNC(=O)C1CCN(C)C(=O)C1)c1ccccc1` (stereo not drawn) the same measures were -16% and 2.26.
For `Cc1c(Cl)cncc1NC(=O)N1CCC12CCOCC2` the same measures were -7% and 1.13.
Turning to `COC(=O)c1ccc(N(C)Cc2cc(F)c(F)c(F)c2)nn1`, the “% Inhibition” value is -1% and the Z score came to 0.16.
Consider `Cc1noc(C)c1[C@@H]1CCCN1C(=O)Cc1ccc2c(c1)NC(=O)CO2`, for which the “% Inhibition” value is listed as 7% and the Z score is -1.12.
Consider `COC(=O)CN1CCN(CCC2CCCC2)CC1`, for which the “% Inhibition” value was determined as 19% and the Z score is -2.79.
As for `Cc1nnc(NC(=O)Cn2cccn2)s1`, the “% Inhibition” value is reported as -7% and the Z score was found to be 0.87.
Taken in the same sequence, the figures for `COc1ccc(NC(=O)Cn2nc(N3CCOCC3)c3ccccc3c2=O)cc1` were -13% and 2.34.
Taken in the same sequence, the figures for `COCCn1c(=O)c(CNC[C@H](O)CO)cc2cc3c(cc21)CCC3` were 7% and -0.8.
Taken in the same sequence, the figures for `COCCc1noc(CNc2nc3c(s2)c(C)nn3C)n1` were -2% and 0.38.
On to `C[C@@H]1OCc2c1nc(N)c(C#N)c2-c1ccnn1-c1ccccc1`, for which the “% Inhibition” value was -27% and the Z score is 2.5.
Take `CCCCc1noc(C(C)N2CCC(N3CCCC3)C2)n1` (stereo not drawn): the “% Inhibition” value was -4% and the Z score came to 0.61.
For the compound `Cc1cccc(-c2ccc(N3CCC(C(=O)Nc4ccc(Oc5ccccc5)cc4)CC3)nn2)c1`, the “% Inhibition” value is recorded as -9% and the Z score was 1.14.
For `Cc1nnc([C@@H]2Cc3ccccc3CN2)o1` the same measures were -8% and 1.15.
For `CN(C)c1nc([C@H]2C[C@@H](NC(=O)N3CCOCC3)C2)cc(=O)[nH]1` the same measures were 11% and -1.46.
Taken in the same sequence, the figures for `CCC1CN(CCn2cccn2)CCN1CC(O)c1ccccc1` (stereo not drawn) were -3% and 0.35.
For the compound `CCc1cc(N2CCC(O)(Cn3ccnn3)CC2)nc(CC)n1`, the “% Inhibition” value is recorded as -2% and the Z score is on record as 0.3.
In the case of `CC(C)CCC(=O)NCc1csc(N(C)C(=O)CCC(C)C)n1`, the “% Inhibition” value is reported as 6% and the Z score is recorded as -0.73.
With `C[C@@H](C(=O)NCCC1=CCCCC1)N(C)Cc1cccc(F)c1`, the “% Inhibition” value is given as -1% and the Z score amounted to 0.19.
For the compound `c1ccc(COCCN2CCO[C@H](C3CC3)C2)cc1`, the “% Inhibition” value was -13% and the Z score is listed as 1.24.
Taken in the same sequence, the figures for `O=C(NC1CCC(O)CC1)N1CCC[C@H]1c1cccs1` (stereo partly drawn) were -8% and 1.1.
Taken in the same sequence, the figures for `O=C(NCc1cccc(C(F)(F)F)c1)c1ccc(CN2CCn3cccc3[C@H]2c2ccccc2F)o1` were 14% and -1.91.
Taken in the same sequence, the figures for `CN(C)c1noc(COc2ccc3c(c2)CCC3)n1` were -15% and 1.65.
As to `O=C(Cn1cc(C(=O)c2ccncc2)c(=O)c2cc(Br)ccc21)Nc1ccc(F)cc1F`, the “% Inhibition” value is -5% and the Z score was found to be 0.89.
Taken in the same sequence, the figures for `CCN(C(=O)c1sc(NC(=O)Cc2ccccc2)c(C#N)c1C)C1CCCCC1` were 34% and -3.81.
With `Cc1cc(-c2nc(C(=O)N(CC(F)F)CC3CCC3)co2)ccn1`, the “% Inhibition” value was found to be 1% and the Z score is given as -0.16.
On to `N#C[C@@H](C(=O)c1ccco1)c1nc2cc(F)ccc2s1`, for which the “% Inhibition” value is recorded as -3% and the Z score was determined as 0.51.
For the compound `Cc1cc(C)c(C(=O)O)cc1NC(=O)C1(S(C)(=O)=O)CCC1`, the “% Inhibition” value was 7% and the Z score is given as -0.61.
For the compound `CC(C)c1ccc(C(=O)N2CCCC[C@@H]2CCc2ccc(O)cc2)c(=O)[nH]1`, the “% Inhibition” value is recorded as -9% and the Z score came out at 1.02.
As for `COC(=O)c1cn(CCc2cn3ccccc3n2)cc2c(O)nnc1-2`, the “% Inhibition” value is -7% and the Z score was 0.84.
Taken in the same sequence, the figures for `CCN(CC)C(=O)[C@@H]1C[C@H](NC(=O)c2ccncc2)CN1C1CCOCC1` were 7% and -1.25.
For `CN(C)C(=NCCc1cccs1)N(C)C` the same measures were -2% and 0.29.
Taken in the same sequence, the figures for `CC[C@H](NC(=O)N1CCNC(=O)C1)c1ccccc1Br` were -10% and 1.56.
As to `Cn1cc(CCS(=O)(=O)c2cccc(O)c2)cn1`, the “% Inhibition” value was -5% and the Z score is recorded as 0.84.
Taken in the same sequence, the figures for `O=C(Nc1ccc(Cl)cc1-c1ccccc1)N1CC(O)C(O)C1` (stereo not drawn) were 0% and -0.01.
`CC(=O)N[C@H]1CCN(C2CCN(c3cccc(-c4ccco4)c3)CC2)C1`: the “% Inhibition” value is -8% and the Z score came out at 0.99.
Taken in the same sequence, the figures for `COc1ccc2c(c1)OCC[C@@H]2NC(=O)N(CC1CC1)CC1CC1` were -5% and 0.59.
`C[C@H](O)CN(C)c1c(Cl)cccc1C#N`: the “% Inhibition” value worked out at 2% and the Z score is listed as -0.29.
Taken in the same sequence, the figures for `CCCOc1cc(Cl)c(CN2C[C@@H]3[C@H](C2)[C@H]3C(=O)O)cc1OCC` were -2% and 0.31.
For `O=C(NCc1ccc([C@@H](O)c2cccs2)s1)c1ccc(F)cc1` the same measures were 6% and -0.94.
In the case of `CCN1CC2(CCN(Cc3ccccc3F)CC2)C[C@@H](c2ccccc2)C1=O`, the “% Inhibition” value was -8% and the Z score is on record as 1.31.
`CC1=C(C(=O)N[C@H]2CCC[C@H]2Cc2ccc(F)cc2)OCCO1`: the “% Inhibition” value is -8% and the Z score was determined as 1.62.
For `C[C@@H](CN(C)c1cc(C(F)(F)F)ccn1)N1CCOCC1` the same measures were -2% and 0.41.
For `CCN(C(=O)CN1C(=O)N[C@@](C)(c2ccc(C)o2)C1=O)c1ccccc1` the same measures were -42% and 4.9.
Turning to `O=C(NC[C@](O)(c1ccsc1)c1cccs1)NC1CCCC1`, the “% Inhibition” value is given as -3% and the Z score was determined as 0.46.
Regarding `CC(=O)N[C@H]1[C@H](OC2CCCCC2)O[C@H](COC(C)=O)[C@@H](OC(C)=O)[C@@H]1OC(C)=O`, the “% Inhibition” value was -3% and the Z score was found to be 0.32.
With `O=c1n(CC2CC2)nc2n1CCN(S(=O)(=O)c1ccccc1C(F)(F)F)C2`, the “% Inhibition” value was -20% and the Z score stood at 3.4.
Regarding `CCc1ccccc1CN(CC#N)S(=O)(=O)N(C)C`, the “% Inhibition” value was -7% and the Z score came to 1.14.
Take `Cn1cc(-c2ccc(CNS(=O)(=O)Cc3ccccc3)cn2)cn1`: the “% Inhibition” value is given as 7% and the Z score was -0.91.
For `Cc1cnnn1-c1ccc(NC(=O)[C@H]2CC(=O)N(c3ccccc3)C2)cc1` the same measures were -4% and 0.42.
For `O=C(Cn1cccn1)N1CC[C@]23C(=O)N(Cc4cn(nn4)CCCOc4cccc(c4)[C@H]12)c1ccccc13` the same measures were -10% and 1.86.
Taken in the same sequence, the figures for `CC(C)N(CCNc1nccc(-c2ccccn2)n1)C(C)C` were -2% and 0.5.
As to `CC1(CC(=O)N2CC3(C2)CC(F)(F)C3)CC1`, the “% Inhibition” value stood at 1% and the Z score is -0.15.
For `CCOc1ccc(N2C(=O)CN(S(=O)(=O)c3ccccc3)C[C@@]2(C)C(=O)NC2CCCC2)cc1` the same measures were -5% and 0.66.

For orientation: % Inhibition means the drop in the measured response relative to a control, in per cent.
